Results: PMC4336329 (PLoS ONE, 2015)
The campaign covered roughly 310,000 compounds. About 14,000 (4.5%) showed an effect of 50% or more. Effects have a minus sign here. Some of the results follow.

Biological target: human ether-à-go-go-related gene (hERG) potassium channel (human, UniProt Q12809)
Test: primary screen, population patch clamp on CHO cells stably expressing hERG
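Also: peak tail current of the secondary pulse compared with the same well before compound.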

Chain of human ether-à-go-go-related gene (hERG) potassium channel (Q12809 whole entry, looked up): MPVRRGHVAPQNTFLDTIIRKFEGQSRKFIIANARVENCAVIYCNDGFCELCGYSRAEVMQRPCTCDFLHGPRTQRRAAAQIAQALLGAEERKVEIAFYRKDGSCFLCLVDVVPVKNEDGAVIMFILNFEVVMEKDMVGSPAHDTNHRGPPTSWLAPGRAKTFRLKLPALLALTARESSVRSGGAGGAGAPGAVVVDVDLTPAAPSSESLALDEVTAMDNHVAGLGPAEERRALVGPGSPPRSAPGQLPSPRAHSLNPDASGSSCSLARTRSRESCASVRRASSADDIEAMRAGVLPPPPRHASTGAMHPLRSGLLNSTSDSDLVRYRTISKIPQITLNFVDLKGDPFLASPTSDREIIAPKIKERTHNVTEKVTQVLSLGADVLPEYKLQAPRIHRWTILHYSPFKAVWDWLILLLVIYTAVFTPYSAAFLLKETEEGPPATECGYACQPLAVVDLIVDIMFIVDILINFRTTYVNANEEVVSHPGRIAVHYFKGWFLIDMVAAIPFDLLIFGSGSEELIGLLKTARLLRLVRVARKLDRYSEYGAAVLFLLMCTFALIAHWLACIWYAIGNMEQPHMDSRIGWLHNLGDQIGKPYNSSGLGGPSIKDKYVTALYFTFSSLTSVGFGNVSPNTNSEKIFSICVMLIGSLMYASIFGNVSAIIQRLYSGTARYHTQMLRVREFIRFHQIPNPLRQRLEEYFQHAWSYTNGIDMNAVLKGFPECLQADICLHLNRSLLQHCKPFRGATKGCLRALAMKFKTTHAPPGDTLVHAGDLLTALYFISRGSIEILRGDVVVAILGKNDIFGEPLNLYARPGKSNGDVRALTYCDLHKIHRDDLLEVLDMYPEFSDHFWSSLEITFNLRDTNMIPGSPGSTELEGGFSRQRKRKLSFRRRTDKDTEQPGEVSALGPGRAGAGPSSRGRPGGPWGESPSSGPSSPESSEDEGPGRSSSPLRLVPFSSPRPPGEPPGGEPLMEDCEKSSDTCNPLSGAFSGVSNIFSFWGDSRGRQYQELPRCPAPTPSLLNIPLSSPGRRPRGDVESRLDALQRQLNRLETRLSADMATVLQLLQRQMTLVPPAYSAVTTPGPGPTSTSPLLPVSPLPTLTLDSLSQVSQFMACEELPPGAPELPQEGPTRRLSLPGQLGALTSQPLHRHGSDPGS

Row | SMILES | hERG current change (%, negative = inhibition) at 10uM [%]
1 | COc1ccc2[nH]c(=O)c(C(=O)O)cc2c1 | 23.8
2 | COc1ccc2nc(/C=N/NC(=O)[C@@H]3CCCN3C(=O)OC(C)(C)C)ccc2c1 | -7.92
3 | Cc1cc(=O)[nH]c2c1c(C)nn2C1CCCC1 | 3.69
4 | CCc1ccc(CN(C)CC(=O)Nc2ccc(S(=O)(=O)N3CCOCC3)cc2)cc1 | -34.6
5 | N#C/C(=C\c1c(N(Cc2ccccc2)Cc2ccccc2)nc2ccccn2c1=O)C(N)=O | -37.5
6 | O=C(O)Cn1cnc2scc(-c3cccs3)c2c1=O | -1.57
7 | COc1ccc(C(=O)OCC(=O)NCCN2C(=O)CSC2=O)cc1 | -1.03
8 | O=C(c1cccs1)N1CCN(c2ccc(Cl)cc2)CC1 | -13.4
9 | COc1ccc(C(=O)COC(=O)CNC(=O)c2ccccc2)cc1F | -26.5
10 | COc1ccc(C(C)NC(=O)c2ccc([N+](=O)[O-])cc2)cc1OC (centres unmarked) | -38.2
11 | O=C(Cn1ncc2c(=O)oc3ccccc3c21)N1CCC(N2CCCCC2)CC1 | -5
12 | Cc1ccccc1NC(=O)Cc1cccc(C(F)(F)F)c1 | 0.766
13 | NC(=O)C1CCC(NC(=O)OCc2ccccc2)CC1 (centres unmarked) | 9.94
14 | CCNC(=S)N/N=C/c1ccc(C#N)cc1 | 8.67
15 | C=CCn1c(SCC(=O)NCCC2=CCCCC2)nc2ccc(Cl)cc2c1=O | 6.97
16 | COc1ccc(Oc2cc(C)c3ccccc3n2)cc1 | -0.541
17 | CC(=O)OC1N=C(c2ccccc2)c2cc(Br)ccc2NC1=O (centres unmarked) | -10.2
18 | CC(NC(=O)CNC(=O)c1ccc2c(c1)OCO2)c1ccc(S(N)(=O)=O)cc1 (centres unmarked) | 0.985
19 | Cc1ccccc1-n1nc2c(c1NC(=O)/C=C\c1ccc3c(c1)OCO3)CSC2 | 5.74
20 | COc1cc(-c2c(C#N)c(N)nc3[nH]c(=S)[nH]c(=O)c23)ccc1O | 26.7
21 | Cc1ccc(SCC(=O)Nc2ccc3c(c2)OCCO3)cc1 | -15.6
22 | COc1ccc(/C=C/C(=O)C2(O)CCCCC2)cc1OC | 4.84
23 | COCCN1CC(CNC(=O)c2cc(COc3ccc(C)c(C)c3)on2)CC1=O (centres unmarked) | -20.8

Row | SMILES | hERG current change (%, negative = inhibition) at 10uM [%]
24 | Cc1cccc(C(=O)NCC(=O)NCC(c2ccco2)N2CCCCC2)c1 (centres unmarked) | -11.3
25 | CCN(CC(=O)Nc1ccc(NC(C)=O)cc1)C(=O)c1oc2ccccc2c1C | -20.2
26 | Cn1c(=O)c2c(nc(N3CCNCC3)n2Cc2cccc3ccccc23)n(C)c1=O | -0.661
27 | COC(=O)c1ccc(OC)c(CN2CCCN(Cc3cc(C)ccc3C)S2(=O)=O)c1 | 4.84
28 | CCCCNC(=O)c1cc2c(C)cc(C)cc2[nH]1 | 13.6
29 | CCC(C)(C(=O)NC1CCCCC1)N(CC1CCCO1)C(=O)CNC(=O)c1ccccc1 (centres unmarked) | 6.13
30 | Cc1[nH]c(=O)[nH]c(=O)c1NC(=O)CSc1ncccc1-c1nc2ccccc2[nH]1 | 6.95
31 | O=[N+]([O-])c1cccc2c1ccc1ncccc12 | 10.6
32 | COc1cc(C(=O)NNC(=O)c2ccc3ccccc3n2)cc(OC)c1OC | 10.5
33 | COc1cccc(-c2noc(CCCC(=O)Nc3ccc(C(N)=O)cc3)n2)c1 | 7.66
34 | CCn1c(CNC(C)=O)nnc1SCC(=O)c1ccc(Br)cc1 | 0.552
35 | Cc1nc2ccccc2c(=O)n1-c1ccccc1C(F)(F)F | -0.613
36 | COc1cc(OC)cc(C(=O)N2CCN(C(=O)Cc3ccccc3)CC2)c1 | 2.65
37 | CCOC(=O)c1c(C)[nH]c(C)c1C(=O)COC(=O)c1cccnc1SC | -31.8
38 | Cc1ccc(S(=O)(=O)Nc2ccc(S(=O)(=O)NC(C)(C)C)cc2)cc1 | -18.5
39 | CCCC(=O)NC(=S)Nc1cccc(C(C)=O)c1 | 1.17
40 | O=C(O)C(Cc1ccccc1)N1C(=O)/C(=C/c2ccccc2)SC1=S (centres unmarked) | -0.221
41 | O=C(Cc1ccc(Cl)cc1)Nc1ccncc1 | 11.8
42 | Cc1c(CN2CCC(C(=O)Nc3cccc(-c4cccc(Cl)c4)c3)CC2)cnn1C | -61.4
43 | Brc1cccc(OCCn2ccnc2)c1.O=C(O)C(=O)O | -6.17
44 | CCC(C)c1ccc(NC(=S)NN2CCOCC2)cc1 (centres unmarked) | -8.96
45 | CS(=O)(=O)N1CCC(Oc2ccccc2C(=O)NC2CCOC2)CC1 (centres unmarked) | 41.8
46 | O=C1CC(N2CCN(CCc3ccccn3)CC2)C(=O)N1c1ccc(Cl)cc1 (centres unmarked) | -67.4

Row | SMILES | hERG current change (%, negative = inhibition) at 10uM [%]
47 | CSc1ccc(CN(C)CC(=O)NCc2ccccc2)cc1 | -52.5
48 | CCC(CC)c1nnc(NC(=O)CCc2ccccc2)s1 | -3.19
49 | O=C(c1cnccn1)N(Cc1cccs1)C1(C(=O)NC2CCCC2)CCCCC1 | -10.5
50 | N#CC(C#N)=CC1=C2OC(c3ccccc3)=CC(c3ccccc3)=C2CCC1 | 15
51 | CN(C)c1ccc(C2N(C(=O)N3CCOCC3)CCN2S(=O)(=O)c2ccccc2)cc1 (centres unmarked) | 3.98
52 | CC(C)(C)NC(=S)NCc1ccco1 | 8.96
53 | Cc1nc2ccc(NS(=O)(=O)c3ccc(F)cc3)cc2s1 | 34.6
54 | Cc1cccc(C)c1N(CC(=O)NCc1ccccc1)C(=O)c1csnn1 | 6.44
55 | Cc1ccc(NC(=O)C2CCCCC2C(=O)O)cc1C (centres unmarked) | -0.85
56 | Nc1nc(COc2ccccc2)cs1 | 3.89
57 | Cc1cccc(-n2c(CCc3ccccc3)nnc2SCC(=O)c2ccccc2)c1 | -32.6
58 | Cc1ccc(C)c(OCCn2c(=O)c3c(ncn3C3CCCC3)n(Cc3ccccc3)c2=O)c1 | 2.53
59 | c1ccc(-c2cc(-c3ccccc3)ncn2)cc1 | 0.468
60 | CC1CC(=O)N(CC(=O)NC2CCCCC2)c2ccccc2S1 (centres unmarked) | -3.23
61 | CCOc1cccc(-c2c(C(=O)N/N=C(\C)c3ccncc3)nnn2-c2nonc2N)c1 | -43.6
62 | CCOC(=O)c1cc(-c2ccc(OC(F)F)cc2)nc2nc(SC)[nH]c(=O)c12 | -42.7
63 | CCOc1cc(/C=C/C(=O)OCC(=O)NCCN2C(=O)CSC2=O)ccc1OCC(C)C | -2.31
64 | C/C(=N\NC(=O)c1ccc(Cl)cc1)c1cccnc1 | 12.3
65 | COC(=O)CCNc1ccc2c(c1)OCCO2 | 9.42
66 | CCOC(=O)CCc1c(C)c(C#N)c2nc3ccccc3n2c1-n1cnc2ccccc21 | -2.88
67 | CN1CCN(c2ccc(C(F)(F)F)cc2NC(=O)c2ccco2)CC1 | -54.5
68 | CCOC(=O)c1sc(C)c2c(=O)n(Cc3ccc(Cl)cc3)cnc12 | 9.33
69 | COc1ccccc1CCNC(=O)C1CCN(C(=O)/C=C/c2ccccc2)CC1 | -13.8

Row | SMILES | hERG current change (%, negative = inhibition) at 10uM [%]
70 | N#CC(C#N)=C1C=C2C=C(N3CCCCC3)CCC2CC1 (centres unmarked) | -5.36
71 | CCOC(=O)N1CCN(C(=O)c2cc3c(ccc4ccccc43)oc2=O)CC1 | -0.875
72 | CCC(C)N(C(=O)COc1ccccc1C(=O)NCc1ccccc1)C1CCS(=O)(=O)C1 (centres unmarked) | -39.2
73 | COc1ccc(OC)c(CN2CCN(C(=O)CCNC(=O)c3ccc(Br)cc3)CC2)c1 | -45.7
74 | O=C1c2ccccc2C(=O)c2c1cccc2N1CCN(Cc2ccccc2)CC1 | -56.9
75 | O=c1c2c3nc4ccccc4nc3n(/N=C/c3ccco3)c2ncn1CCC1=CCCCC1 | -8.49
76 | Cc1ccc(S(=O)(=O)N(C)c2ccccc2C(=O)Nc2c(F)cccc2F)cc1 | 3.31
77 | O=C(NNS(=O)(=O)c1ccc(Br)cc1)c1ccncc1 | 8.19
78 | Cc1c(O)c2ccccc2n(-c2ccccc2)c1=O | 2.63
79 | COc1ccc(CCNC(=O)c2cc(-c3cc(C)cc(C)c3O)n[nH]2)cc1OC | -7.88
80 | C/C=C1\COC(C(=O)NCCCN2CCCC2=O)(C(F)(F)F)C=C1C=C(C)C (centres unmarked) | -4.43
81 | CC1(C)CC(=O)C2=C(C1)N(Cc1ccco1)C(=O)C2(O)C(F)(F)F (centres unmarked) | -2.9
82 | CCOC(=O)C1CCCN(S(=O)(=O)c2cc3c4c(c2)CCN4C(=O)CC3)C1 (centres unmarked) | -11.2
83 | Cc1nc2ccccc2c(=O)n1-c1ccc([N+](=O)[O-])cc1 | 7.26
84 | Cc1c(/C=N/N2C(=O)C3C4C=CC(C4)C3C2=O)c2ccccc2n1C (centres unmarked) | 11.7
85 | CN1CCN(C2Cc3ccccc3Sc3cc(C(F)(F)F)ccc32)CC1.O=C(O)/C=C\C(=O)O (centres unmarked) | -70.2
86 | CCOC(=O)C1(Cc2cccc(F)c2)CCN(CC2CC2)CC1 | -33.4
87 | Cc1ccc(C)c(NC(=S)NC(NC(=O)Cc2cccc3ccccc23)C(Cl)(Cl)Cl)c1 (centres unmarked) | 1.79
88 | Cc1ccc(S(=O)(=O)N2CCN(C(=O)c3cccs3)CC2)cc1 | 0.764
89 | Cc1ccc(OC(=S)Nc2ccccc2)c(C)c1 | 6.7
